Reference: PubChem BioAssay AID1476 (National Center for Advancing Translational Sciences (NCATS), 2009)
Hit rate of the full screen: of about 200,000 compounds, about 4,500 (2.2%) were called active. The shares of active, inactive and inconclusive entries below differ from those in the screen. The call rests on the fitted dose curve; in most records, active means well fitted inhibition curve with a large enough effect; inconclusive means small, poorly fitted or top-dose-only effect, or effect the other way; inactive means flat fitted curve, though single readings scatter. Potencies of inconclusive entries are doubtful fits and often do not repeat.

Target: Cruzipain (Trypanosoma cruzi) (UniProt P25779)
Test: qHTS Assay for Promiscuous and Specific Inhibitors of Cruzain (without detergent); further: nearly all actives have a fitted effect of over 40% in size;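 on max response, negative = inhibition: plate controls were enzyme without inhibitor for no effect and buffer without enzyme for full effect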
Conditions: purified cruzain, Z-FR-AMC fluorescence, no detergent
In short: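 Purified cruzain at 1.5 nM, pre-incubated 15 min with compound at room temperature in 100 mM sodium acetate pH 5.5, 5 mM DTT, 0.00005% Triton X-100. Reaction started with 2 uM Z-FR-AMC; AMC fluorescence increase over 60 s gives rate.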
Potency means the concentration at half of the fitted maximal effect; tags describe the fitted curve by direction and shape.

Chain of UniProt P25779 (P25779 whole entry, looked up): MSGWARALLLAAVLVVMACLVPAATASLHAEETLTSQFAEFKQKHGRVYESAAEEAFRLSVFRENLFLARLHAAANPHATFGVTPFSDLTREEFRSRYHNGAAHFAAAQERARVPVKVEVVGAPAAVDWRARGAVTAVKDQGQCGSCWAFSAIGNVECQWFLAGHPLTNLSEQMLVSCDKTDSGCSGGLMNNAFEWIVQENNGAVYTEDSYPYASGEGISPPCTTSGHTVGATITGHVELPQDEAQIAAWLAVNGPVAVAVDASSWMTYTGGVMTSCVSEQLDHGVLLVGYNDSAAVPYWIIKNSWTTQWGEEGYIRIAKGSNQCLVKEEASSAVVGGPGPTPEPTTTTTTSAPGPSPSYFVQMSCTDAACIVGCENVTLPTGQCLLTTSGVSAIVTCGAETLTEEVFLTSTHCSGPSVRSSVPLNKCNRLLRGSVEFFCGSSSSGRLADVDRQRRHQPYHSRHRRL

Structure (SMILES)	Potency	max response, negative = inhibition
O=C1SC(SC(=Nc2ccccc2)Nc2ccccc2)C(=O)N1c1ccccc1 (stereo not given)	inconclusive: 39.8 µM [inhibitor, single point]	
C=CCn1c(SCC(=O)NCc2ccco2)nnc1-c1ccc2ccccc2n1	inconclusive: 31.6 µM [activator, single point]	
Cc1ccc(C2CC(=O)N(Cc3ccccc3F)c3c2c(C)nn3-c2nc(C)cc(C)n2)cc1 (stereo not given)	inconclusive: 31.6 µM [activator, single point]	
COc1ccc(C(c2nnnn2Cc2ccccc2)N2CCN(C(=O)c3ccco3)CC2)cc1 (stereo not given)	inconclusive: 25.1 µM [activator, single point]	
O=C(NCCO)c1cccc(Nc2nc(-c3ccccc3)c3cc(Cl)ccc3n2)c1	inconclusive: 31.6 µM [activator, partial curve]	
Cc1cc(=O)oc2c(CN(CC(C)C)CC(C)C)c(O)ccc12	inconclusive: 12.6 µM [inhibitor, single point]	
CCOc1ccc(CCNC(=O)CCc2c(C)nc3c(c(C)nn3-c3ccccc3)c2C)cc1OCC	inconclusive: 6.31 µM [activator, single point]	
COC(=O)COc1cccc(-n2cnnn2)c1		inactive: 7.53%
CSc1nc(N)c2ncn([C@H]3O[C@H](COP(=O)(O)OP(=O)(O)O)[C@@H](O)[C@@H]3O)c2n1		inactive: -4.59%
O=C1CS(=O)(=O)C2(C(=O)N(Cc3cccc(F)c3)c3ccccc32)N1c1ccccc1 (stereo not given)	active: 10 µM	
O=C1C(c2ccncc2)N(CCC2=CCCCC2)C(=O)CN1C1CCCCC1 (stereo not given)	inconclusive: 25.1 µM [activator, single point]	
Cc1ccccc1-c1nc(-c2ccc(NC(=O)c3ccc(Br)o3)cc2)no1	inconclusive: 39.8 µM [inhibitor, single point]	
Cc1cc2cc(CNC(=S)Nc3ccc(OC(F)(F)F)cc3)ccc2[nH]1	inconclusive: 39.8 µM [inhibitor, single point]	
Cc1cccc(OCCCC(=O)Nc2sc3c(c2C(N)=O)CCC(C)C3)c1 (stereo not given)		inactive: 14.1%
Oc1ccccc1Nc1nc(-c2ccccc2)c2cc(Cl)ccc2n1		inactive: 2.01%
COc1ccc(OC)c(NC2=C(c3ccccc3)C(=O)c3ccccc32)c1	inconclusive: 31.6 µM [inhibitor, single point]	
COC(=O)c1ccc(Cl)cc1NC(=O)N1CC=C(c2c[nH]c3ccccc23)CC1	inconclusive: 20 µM [inhibitor, partial curve]	
COc1ccccc1N1CCN(C(=O)c2c(-c3ccccc3Cl)noc2C)CC1	inconclusive: 39.8 µM [activator, single point]	
COc1ccc2nc(SCC(=O)N3CCN(c4ccc(F)cc4)CC3)c(C#N)cc2c1	inconclusive: 31.6 µM [inhibitor, single point]	
CCCCc1nc(N)c(C#N)c(-c2ccco2)c1CCC	active: 20 µM	
O=C(NCC1CCCC(CNC(=O)N2CCc3ccccc32)C1)N1CCc2ccccc21 (stereo not given)	inconclusive: 31.6 µM [inhibitor, single point]	
OC[C@@H]1[C@@H](c2ccc(Cl)cc2)C(c2cccc(Cl)c2)=NN1c1ccccc1	active: 25.1 µM	

Structure (SMILES)	Potency	max response, negative = inhibition
CCc1ccccc1N(C)C(=O)c1cn(CC(C)C)c(=O)c2cc(OC)c(OC)cc12	inconclusive: 25.1 µM [activator, partial curve]	
C=CCn1c(O)c(C=Nc2ccc(OC)cc2C)c(=O)[nH]c1=O	inconclusive: 20 µM [activator, partial curve]	
COc1ccc(-c2cc(C(F)(F)F)c(C#N)c(SCC(=O)Nc3ccccc3C#N)n2)cc1		inactive: -0.461%
Cc1cccc(NC(=O)Nc2nnc(N(C)C3CCCCC3)s2)c1C	inconclusive: 39.8 µM [activator, single point]	
COc1ccc(/C=N/Nc2nnc(-c3ncc[nH]3)c3ccccc23)cc1		inactive: 2.42%
Cc1ccccc1Nc1sc(C(=O)c2ccc3c(c2)OCO3)c(N)c1S(=O)(=O)c1ccccc1	active: 7.94 µM	
COc1cccc2sc(Nc3nc(-c4ccccn4)cs3)nc12	inconclusive: 31.6 µM [activator, single point]	
Cc1ccc(-c2nc(C(=O)NCc3ccc(Cl)cc3)c3n2CCCCC3)cc1		inactive: -3.86%
O=C(Cn1c(=O)oc2cc(S(=O)(=O)N3CCCCCC3)ccc21)Nc1cccc(C(F)(F)F)c1		inactive: -13.4%
Cc1ccccc1CNC(=O)c1ccc(NC(=O)c2nsc3ccccc23)cc1	inconclusive: 25.1 µM [inhibitor, single point]	
COc1ccc(S(=O)(=O)Nc2nc3ccccc3nc2NCc2ccc3c(c2)OCO3)cc1		inconclusive: -91.8% [inhibitor]
COc1cc2[nH]c(=O)n(CCC(=O)N3CCN(c4cc(Cl)ccc4C)CC3)c(=O)c2cc1OC	inconclusive: 25.1 µM [activator, partial curve]	
CC(C)c1ccc(NS(=O)(=O)c2ccc3[nH]cc(C(=O)NC4CCCC4)c(=O)c3c2)cc1	inconclusive: 39.8 µM [inhibitor, single point]	
COC(=O)c1c(NC(=O)c2ccc(C)cc2)sc(Cc2ccccc2)c1C	inconclusive: 31.6 µM [inhibitor, single point]	
Cc1cc(C)cc(N=Cc2[nH]c3ccc(Br)c(Cl)c3c2O)c1	active: 3.98 µM	
O=C(COc1ccc(S(=O)(=O)NC2CCCCC2)cc1)N1CCN(c2cccc(Cl)c2)CC1	inconclusive: 39.8 µM [inhibitor, single point]	
CCc1ccc(OCC(=O)NC(=S)Nc2cccc(CO)c2)c(Br)c1	inconclusive: 39.8 µM [activator, single point]	
CC1=NN(c2ccc(S(=O)(=O)O)cc2C)C(=[OH+])[C@H]1N=Nc1cc(S(=O)(=O)O)ccc1C(=O)O.O.[Cr]		inactive: -6.64%
O=[N+]([O-])c1ccc(/C=C/c2ccc3cccc([N+](=O)[O-])c3n2)cc1	active: 12.6 µM	
COc1cc(C(=O)N2CCCN(c3nc4cc(C)ccc4cc3C#N)CC2)cc(OC)c1OC	inconclusive: 39.8 µM [activator, single point]	
CC(C)c1c(Cl)c(O)c(-c2ccccc2)c(=O)n1-c1ccc(F)cc1	inconclusive: 15.8 µM [inhibitor, single point]	
CCCCCCN(CCCCCC)C(=O)Cc1c(-c2ccc(F)cc2)[nH]c2ccccc12	active: 31.6 µM	

Structure (SMILES)	Potency	max response, negative = inhibition
N[C@@H](Cc1cnc[nH]1)C(=O)O	inconclusive: 1.26 µM [inhibitor, single point]	
COc1cc(-c2cc(C(=O)OCC(=O)Nc3ccc4c(c3)OCO4)c3ccccc3n2)cc(OC)c1OC	inconclusive: 39.8 µM [activator, single point]	
CN(C)C(=O)/C(C#N)=C\c1cc(Br)c(Sc2ccc(Cl)cc2)o1	inconclusive: 31.6 µM [activator, single point]	
CCC(=O)N1CCc2cc(Br)cc(S(=O)(=O)NCCc3ccc(OC)c(OC)c3)c21		inactive: 2.87%
Cc1cc(Cl)c(S(=O)(=O)N2CCN(c3ccccc3)CC2)cc1OCC(N)=O	inconclusive: 39.8 µM [activator, single point]	
Cc1cccc(Cn2c(N3CCc4ccccc4C3)nc3c2c(=O)[nH]c(=O)n3C)c1	inconclusive: 39.8 µM [inhibitor, single point]	
O=C(/C=C/Nc1ccc(F)cc1Br)c1ccccc1	inconclusive: 25.1 µM [inhibitor, single point]	
COc1cc(C(=O)N(Cc2ccc(C(C)C)cc2)C2CCS(=O)(=O)C2)cc(OC)c1OC (stereo not given)	inconclusive: 39.8 µM [activator, single point]	
O=C(NC(=S)Nn1cnc2c(cnn2-c2ccccc2)c1=O)c1ccc(Cl)cc1		inactive: 1.66%
Cc1cc(=O)c2c(O)c3c(O)cc(O)c4c5c(O)cc(O)c6c(O)c7c(=O)cc(C)c8c1c2c(c34)c(c65)c78	inconclusive: 28.2 µM [inhibitor, single point]	
COC(=O)CNC(=O)C1CCN(C(=O)OCc2ccccc2)CC1		inactive: -0.672%
COc1cc(S(=O)(=O)N2CCCC3(CCCCC3)C2)ccc1-n1cnnn1	inconclusive: 39.8 µM [activator, single point]	
COC(=O)c1ccc(NC(=O)CSc2nc(=O)n(Cc3ccco3)c3c2CCC3)cc1		inactive: -12.9%
CC(=O)N1CCN(C(=S)c2ccc(N(C)C)cc2)CC1		inactive: 11.8%
Cc1cccc(NC(=O)CSc2nc3c(oc4ccccc43)c(=O)n2-c2ccccc2)c1	inconclusive: 39.8 µM [inhibitor, single point]	
CSc1nc2sc3c(c2c(=O)n1-c1ccc(C)c(Cl)c1)CCN(C(C)=O)C3		inactive: -1.04%
COc1ccccc1CNC(=O)[C@@H]1CCCN1C(=O)C1CCN(S(=O)(=O)c2ccc(C)cc2)CC1	inconclusive: 31.6 µM [activator, single point]	
O=C1CC(N2CCN(c3ccccc3Cl)CC2)C(=O)N1c1ccccc1 (stereo not given)		inactive: 10.4%
COc1cc(C2Nc3ccccc3C(=O)N2c2ccc(Cl)cc2)c(Cl)cc1OCC(=O)O (stereo not given)	inconclusive: 39.8 µM [activator, single point]	
O=C(Oc1ccc(-c2nccc(-c3ccccn3)n2)cc1)c1cccc(C(F)(F)F)c1		inactive: 3.24%
COc1ccc(/C=C/C(=O)Nc2cccc(N3CCOCC3)c2)cc1OC	inconclusive: 39.8 µM [activator, single point]	
